Data as given in PubChem BioAssay AID504332 (National Center for Advancing Translational Sciences (NCATS), 2011).
In all, about 350,000 compounds went through this assay and about 31,000 (8.9%) were called active. The inconclusive results got no clear call from the source; some entries with a clear call stand among them for comparison. Calls come from the whole dose curve; as a rule, active = well fitted inhibition curve with a large enough effect; inconclusive = small, poorly fitted or top-dose-only effect; inactive = no such curve, though single readings can be large or run the other way. Potencies of inconclusive entries are doubtful fits and often do not repeat.

Each molecule was assayed against Histone-lysine N-methyltransferase EHMT2 (Homo sapiens) (UniProt Q96KQ7) (assay: qHTS Assay for Inhibitors of Histone Lysine Methyltransferase G9a). Conditions: G9a H3K9 monomethylation, AlphaScreen, 2 h; activity, negative = inhibition: at 59 µM (top of the series) unless noted.
Method in brief: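 Readings reflect AlphaScreen signal from monomethyl-H3K9 antibody detection. HMT at 20 nM; substrate b-H3K9 500 nM; cofactor SAM 20 uM; 2 h RT reaction; compounds tested as titrations in qHTS with 15 min preincubation.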
% is set by controls: 0 for no effect and ±100 for the full control effect; potency is the fitted concentration of half-maximal effect; tags give direction and shape of the fitted curve.
Note: nearly all actives have a fitted effect of over 75% in size.

Chain of UniProt Q96KQ7 (Q96KQ7 whole entry, looked up): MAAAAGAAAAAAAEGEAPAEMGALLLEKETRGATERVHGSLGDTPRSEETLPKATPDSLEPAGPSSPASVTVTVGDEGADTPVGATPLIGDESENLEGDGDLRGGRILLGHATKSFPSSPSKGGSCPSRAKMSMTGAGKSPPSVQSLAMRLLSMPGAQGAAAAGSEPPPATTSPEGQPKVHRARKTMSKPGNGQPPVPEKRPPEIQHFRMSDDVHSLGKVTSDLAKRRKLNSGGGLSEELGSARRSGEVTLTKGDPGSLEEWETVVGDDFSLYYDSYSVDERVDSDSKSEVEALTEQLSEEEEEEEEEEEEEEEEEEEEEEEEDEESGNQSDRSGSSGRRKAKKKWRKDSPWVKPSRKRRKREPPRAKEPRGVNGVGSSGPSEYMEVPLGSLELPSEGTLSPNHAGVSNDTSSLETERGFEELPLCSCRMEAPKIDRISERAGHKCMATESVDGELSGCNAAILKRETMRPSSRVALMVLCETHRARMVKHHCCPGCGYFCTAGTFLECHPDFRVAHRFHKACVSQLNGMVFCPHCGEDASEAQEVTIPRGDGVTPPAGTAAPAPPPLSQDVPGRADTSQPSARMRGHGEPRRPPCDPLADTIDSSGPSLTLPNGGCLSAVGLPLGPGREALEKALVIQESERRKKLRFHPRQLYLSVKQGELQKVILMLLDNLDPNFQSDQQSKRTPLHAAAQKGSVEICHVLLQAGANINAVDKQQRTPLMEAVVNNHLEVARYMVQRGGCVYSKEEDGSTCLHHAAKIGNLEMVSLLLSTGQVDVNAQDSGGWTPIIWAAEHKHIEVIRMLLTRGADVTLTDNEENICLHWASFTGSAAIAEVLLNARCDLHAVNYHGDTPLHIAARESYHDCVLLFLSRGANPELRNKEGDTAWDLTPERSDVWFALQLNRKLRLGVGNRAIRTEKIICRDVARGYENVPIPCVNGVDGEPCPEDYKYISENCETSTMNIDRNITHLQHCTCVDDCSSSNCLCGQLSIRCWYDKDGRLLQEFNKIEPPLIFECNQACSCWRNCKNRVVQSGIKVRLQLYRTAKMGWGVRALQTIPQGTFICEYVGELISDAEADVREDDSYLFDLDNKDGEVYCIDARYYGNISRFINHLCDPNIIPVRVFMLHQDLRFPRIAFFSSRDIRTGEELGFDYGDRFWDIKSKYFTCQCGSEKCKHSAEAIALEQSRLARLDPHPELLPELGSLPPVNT

SMILES	Potency	activity, negative = inhibition
COc1ccc(OC)c(C2/C(=C(\O)c3ccc4c(c3)OCCO4)C(=O)C(=O)N2CC2CCCO2)c1 (centres undefined)	inactive	
CN(C)CCCNC(=S)NCC(c1ccc(Cl)cc1Cl)c1c[nH]c2ccccc12 (centres undefined)	inconclusive: 89.1 µM [inhibitor, single point]	
O=C1NCC(COCc2ccco2)O1 (centres undefined)	inconclusive: 89.1 µM [inhibitor, partial curve, poor fit]	
Cc1cc(C)n(-c2nc(C)c(C)c(=O)n2CC(=O)Nc2ccc([N+](=O)[O-])cc2)n1	inconclusive: 7.94 µM [inhibitor, full curve]	
C#CCOCCOCCOCCNc1nc(N2CCN(C(=O)CCCCCCCCCCNC(=O)[C@@H](CCSC)n3cc(CCO)nn3)CC2)nc(N2CCN(C(=O)CCCCCCCCCCNC(=O)[C@H](CCCN=C(N)N)n3cc(C[C@@H](C)CC)nn3)CC2)n1		inactive: -15.2% [at 2.33 µM]
Cc1cccc(N2CCN(C(=O)CSc3ccsc3[N+](=O)[O-])CC2C)c1 (centres undefined)	inconclusive: 35.5 µM [inhibitor, single point]	
O=c1c(C/C=C/c2ccccc2)c(O)nc2n1CCCS2	inconclusive: 56.2 µM [inhibitor, partial curve, poor fit]	
COCCn1c(=O)c(-c2cccs2)nc2cnc(N(C)C)nc21		inactive: -1.94% [at 0.501 µM]
O=C(NCc1ccco1)c1ccc(COc2ccccc2[N+](=O)[O-])o1	inconclusive: 14.1 µM [inhibitor, single point]	
CCn1c(SC(C)C(=O)O)nc2sc3c(c2c1=O)CCC3 (centres undefined)		inconclusive: -100% [inhibitor]
Cc1nccn1CC(O)COC1CCCCC1 (centres undefined)	inconclusive: 2 µM [inhibitor, partial curve, poor fit]	
COc1cccc(/C=C2\SC(=S)N(NS(=O)(=O)c3ccccc3)C2=O)c1OC	active: 39.8 µM	
Cc1ccc(S(=O)(=O)Nc2ccc(O)c3ncccc23)cc1	inconclusive: 22.4 µM [inhibitor, partial curve, poor fit]	
O=C(CC(C(=O)O)c1cccc(Br)c1)c1ccc(Cl)cc1 (centres undefined)	inactive	
COc1ccc(-c2ocnc2C(=O)Nc2ccc(N3CCOCC3)cc2N2CCOCC2)cc1OC	inconclusive: 44.7 µM [inhibitor, partial curve, poor fit]	
COC(=O)/C(C(C)=O)=C(/C=C/C=C/N(C)C)N(C)C	inconclusive: 35.5 µM [inhibitor, single point]	
C/C(=N\Nc1ccc(Cl)c(C(=O)O)c1)c1ccc(N2CCOCC2)cc1	active: 39.8 µM	
CCn1c(SCC(=O)c2c(N)n(C3CC3)c(=O)[nH]c2=O)nc2cc(S(N)(=O)=O)ccc21		inactive: -8.31% [at 12.7 µM]
Clc1nssc1=Nc1ccccc1	active: 2 µM	
Cc1cc(C)n2c(SCC(=O)N(C)C3CCS(=O)(=O)C3)nnc2n1 (centres undefined)		inactive: 10.2% [at 0.0925 µM]
COc1ccc(CNC(=O)CS(=O)Cc2nc(-c3ccc(C)cc3)oc2C)cc1 (centres undefined)	inconclusive: 79.4 µM [inhibitor, single point]	
COc1ccc(NC(=O)c2ccc(NC(=O)N3CCSc4ncccc43)cc2)cc1	inconclusive: 8.91 µM [inhibitor, partial curve, poor fit]	

SMILES	Potency	activity, negative = inhibition
CCn1c(Cc2cccc3ccccc23)nnc1SCC(=O)Nc1nccs1	active: 10 µM	
CC(C)OC(=O)CC(=O)CSc1nc2c(cc1C#N)CCCCC2	inconclusive: 44.7 µM [inhibitor, partial curve]	
CC(=O)c1c(C)[nH]c(C(=O)CSc2nnc(NC3CC3)s2)c1C	active: 50.1 µM	
CCN(CC)S(=O)(=O)c1cccc(NC(=O)CSc2nnc(N)s2)c1	active: 17.8 µM	
O=C(Nc1nnc(C2=COCCO2)o1)c1cccc([N+](=O)[O-])c1	inactive	
O=C(NCCNC(=O)c1ccccc1F)c1ccccn1	inconclusive: 22.4 µM [inhibitor, partial curve, poor fit]	
CC(C)c1ccc([N+](=O)[O-])cc1S(=O)(=O)N1CCN(C)CC1	inactive	
C=CCc1cccc2cc(C(=O)N3CCN(C(=O)OCC)CC3)c(=O)oc12		inconclusive: -70.1% [inhibitor]
CC(C)C[C@H](NC(=O)C1CCN(S(=O)(=O)c2ccccc2)CC1)C(=O)NCc1ccccn1	inactive	
CN(C)Cc1c(O)ccc2cc(-c3nc4ccccc4n3C)c(=O)oc12	inconclusive: 70.8 µM [inhibitor, single point]	
CC(C)CN1CC2(CCN(C(=O)c3ccco3)CC2)C1		inactive: 1.09% [at 12.7 µM]
COc1ccccc1NC(=O)C1=C(C)Nc2nc(SCc3ccccc3)nn2C1c1cccc(O)c1 (centres undefined)	inactive	
Cc1oc(-c2ccccc2F)nc1CS(=O)CC(=O)NC1CCCC1 (centres undefined)	inconclusive: 89.1 µM [inhibitor, single point]	
CSc1nc2ccc3nc(NC(=O)c4ccccc4)sc3c2s1	inactive	
Cc1ccc2c(C(=O)CN3CCCC3)c(C)[nH]c2c1	inconclusive: 89.1 µM [inhibitor, single point]	
Cc1nc2c(-c3ccccc3)c(C)nn2c(C)c1CCC(=O)NC(C)CCc1ccco1 (centres undefined)	inconclusive: 89.1 µM [inhibitor, single point]	
CC(C)CCNC(=O)[C@H](CC(C)C)NC(=O)[C@H]1O[C@@H]1C(=O)O	active: 35.5 µM	
O=C(N/N=C/c1ccncc1)C12CC3CC(CC(C3)C1)C2		inactive: 13.1% [at 12.7 µM]
CCn1c(SCC(=O)NC(C)C(C)C)nc2cc(S(=O)(=O)N3CCOCC3)ccc21 (centres undefined)	inconclusive: 50.1 µM [inhibitor, partial curve, poor fit]	
COc1ccc(C2(c3ccc(OC)cc3)NC(=O)N(CC(=O)Nc3cc(C)ccc3OC)C2=O)cc1	inactive	
COc1ccccc1N1CCN(S(=O)(=O)c2ccc(-n3cnnn3)c(C)c2)CC1	inconclusive: 39.8 µM [inhibitor, single point]	
COc1ccc(N(C)S(=O)(=O)c2cccc(C(=O)Nc3nnc(C4CC4)s3)c2)cc1	inconclusive: 17.8 µM [inhibitor, partial curve, poor fit]	
